From PubChem BioAssay AID1347120 (National Center for Advancing Translational Sciences (NCATS), 2019)
Screen size: about 390,000 compounds; about 930 (0.24%) were called active. The shares of active, inactive and inconclusive entries below differ from those in the screen. The call rests on the fitted dose curve; in most records, active means well fitted activation curve with a large enough effect; inconclusive means small, poorly fitted or top-dose-only effect; inactive means no such curve, though single readings can be large or run the other way. Potencies beside an inconclusive call are fits to weak or partial responses and may not hold up.

Experiment: qHTS for Suppressors of FUS Proteinopathy: Primary screen using FUS-linked yeast assay; further: nearly all actives have a fitted effect of over 55% in size;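 on growth rescue (activation): plate controls were DMSO vehicle for no effect and reference control for full effect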
Details: S. cerevisiae FUS-expressing, OD600, 24 h; Potency: growth rescue; growth rescue (activation): at 76.6 µM (top of the series)
Procedure, shortened: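 Toxicity suppression screen in FUS-yeast. Cells induced with 2% galactose, starting OD 0.005, treated 24hr at 30C with compounds at multiple final concentrations; growth by OD600.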
Potency means the concentration at half of the fitted maximal effect; tags describe the fitted curve by direction and shape.

Compound	Potency	growth rescue (activation)
CCOC(=O)c1c(C)n(C)c2ccc(OCC(O)CN3C(=O)c4ccccc4S3(=O)=O)cc12 (stereo not given)	inconclusive: 20 µM [activator, partial curve, poor fit]	
COc1ccc(C2=Nn3c(nnc3-c3ccccc3Cl)SC2)cc1OC1CCCC1	inconclusive: 15.8 µM [activator, partial curve]	
COc1ccc(CCNC(=O)c2oc3ccc(OC)cc3c2C)cc1		inactive: 14.5%
NS(=O)(=O)c1ccc(CCNC(=O)CCCCCn2c(=O)[nH]c3ccccc3c2=O)cc1		inactive: 8.38%
CC(C)c1ccc(NC(=O)O[C@H]2CC[C@@]34CCCN3C(=O)CCC[C@H]4[C@H]2C)cc1	inconclusive: 20 µM [activator, single point]	
Cc1ccc(-n2c(SCC(=O)Nc3ccc(S(=O)(=O)Nc4cc(C)nc(C)n4)cc3)nnc2-c2ccc(C(C)(C)C)cc2)cc1	active: 22.4 µM	
CCn1nc(C(=O)OC(C(=O)c2c[nH]c3ccccc23)c2ccccc2)c2ccccc2c1=O (stereo not given)	inconclusive: 17.8 µM [activator, partial curve, poor fit]	
CC(C)CN=C(NS(=O)(=O)c1ccccc1)C(Cl)(Cl)Cl	inconclusive: 5.01 µM [activator, single point]	
COc1ccc(CNC(=O)C2CCN(c3cc(C(=O)Nc4cccc(OC)c4)ccn3)CC2)cc1	inconclusive: 35.5 µM [activator, single point]	
CCCC(c1nnnn1C(C)(C)CC)N(CCCO)Cc1cc2cc(C)cc(C)c2[nH]c1=O (stereo not given)	inconclusive: 20 µM [activator, single point]	
Cc1ccccc1NC(=S)c1nc2ccccc2[nH]1		inactive: -7.91%
Nn1c(SCC(=O)N2c3ccccc3Sc3ccc(Cl)cc32)nnc1-c1n[nH]c2c1CCC2	inconclusive: 25.1 µM [activator, partial curve, poor fit]	
COc1ccc(N(C(=O)/C=C\C(=O)Nc2ccc(Cl)cc2)C(C(=O)NCc2ccco2)c2ccc(C)cc2)cc1 (stereo not given)	inconclusive: 14.1 µM [activator, partial curve, poor fit]	
COC(=O)c1ccc(C23CC4(C2)[C@H](CN(CC2CCCCC2)[C@@H]4c2ccccc2)C3c2ccc(Cl)nc2)cc1 (stereo not given in full)	inconclusive: 14.1 µM [activator, partial curve, poor fit]	
CC(=O)Nc1cc(-c2ccccc2F)cn2c(-c3ccccc3)cnc12		inactive: 28.4%
CC(=O)c1cccc(NS(=O)(=O)c2ccc3[nH]c4c(c3c2)CCCCCC4)c1	inconclusive: 50.1 µM [activator, single point]	
CC1=C(C(=O)N(C)C)CC(CC(=O)NCCCCc2ccccc2)C(=O)N1Cc1ccc(C(C)(C)C)cc1 (stereo not given)	inconclusive: 35.5 µM [activator, single point]	
COc1ccc(NC(=O)C2CCN(S(=O)(=O)c3c(C)noc3/C=C/N(C)C)CC2)cc1	inconclusive: 11.2 µM [activator, full curve, poor fit]	
CCCCCCCCN1C(=O)[C@@H](CC(=O)NCc2cccc(C(F)(F)F)c2)C[C@@]2(C(=O)OC)C1=C[C@H](C(C)C)O[C@@H]2C1CC1	inconclusive: 2.51 µM [activator, full curve]	
Cc1ccc(OCC(=O)NC2CC(C)(C)NC(C)(C)C2)c(C)c1	inconclusive: 11.2 µM [activator, single point]	

Compound	Potency	growth rescue (activation)
COc1cccc(C(=O)NCCN2C(=O)C3C4C=CC(C4)C3C2=O)c1 (stereo not given)		inactive: -10.7%
CCN(Cc1cc(=O)n2cc(Cl)c(C)c(Cl)c2n1)Cc1nc2ccccc2c(=O)[nH]1	inconclusive: 3.16 µM [activator, full curve]	
Cc1c(Cl)cccc1NS(=O)(=O)c1ccc2[nH]cc(C(=O)NC3CCCC3)c(=O)c2c1	inconclusive: 35.5 µM [activator, single point]	
COc1cccc(NC(=O)CN(C)C(=O)c2cccc(S(=O)(=O)Nc3ccc(C)cc3)c2)c1	inconclusive: 25.1 µM [activator, single point]	
CC(=O)C1=C(c2ccc(Br)cc2)C(=O)c2ccccc2C1=O		inactive: 32%
COC(=O)[C@]12C[C@H](CC(=O)N3CCOCC3)C(=O)N(Cc3ccc(Cl)cc3Cl)C1=C[C@H](C(C)C)O[C@@H]2C1CC1	inconclusive: 25.1 µM [activator, single point]	
CCc1ccc2oc(C(=O)N3CCN(c4ccccc4OC)CC3)cc(=O)c2c1		inactive: 27.7%
COc1ccc2ccccc2c1C=NNC(=O)c1cc(-c2ccc(C)cc2)n[nH]1		inactive: 30.1%
O=C(Nc1ccc2ccccc2c1)c1cccc2ccccc12		inactive: -0.769%
CCCCOc1ccc(CNC(=O)CN2CCSc3ccccc32)cc1	inconclusive: 12.6 µM [activator, partial curve, poor fit]	
CCCNC(=O)Nc1ccc2c(c1)C(=O)N(C)[C@H]1CC[C@@H](CC(=O)OC)O[C@H]1CO2		inactive: -18.3%
Cc1nc2nc(NC(=O)c3cccc(Cl)c3)[nH]n2c(=O)c1Cc1ccccc1		inactive: -16.8%
O=C(NCc1ccco1)c1cc2ccccc2c(=O)o1	inconclusive: 2.51 µM [activator, full curve]	
Cc1cccc(NC(=O)CN(C)C(=O)c2ccc(N3CCCCCC3)c([N+](=O)[O-])c2)c1C	inconclusive: 31.6 µM [activator, single point]	
O=C1C=C(c2ccc(F)c(Cl)c2)C[C@@H](c2ccc(F)cc2)C1		inactive: 32.4%
CCC(=O)Nc1ccc(Cl)c(NC(=S)NC(=O)c2ccco2)c1		inactive: 2.35%
CCOC(=O)C1CCN(S(=O)(=O)c2ccc(Br)c(OCC)c2)CC1	active: 5.62 µM	
Cc1cc(NC(=O)CS(=O)(=O)c2cn(Cc3ccccc3Cl)c3ccccc23)no1	inconclusive: 44.7 µM [activator, single point]	
COc1ccc(NC(=O)C(=O)NCCc2csc(-c3ccc(Cl)cc3)n2)cc1		inactive: -6.44%
CC(=O)c1ccc(N2CCN(S(=O)(=O)c3ccc4c(c3)CC(=O)N4)CC2)cc1	inconclusive: 14.1 µM [activator, partial curve, poor fit]	
